{"source": "paper PMC4336329", "about": "(PLoS ONE, 2015)", "note": "Out of some 310,000 compounds screened, about 14,000 (4.5%) showed an effect of 50% or more. Effects have a minus sign here. Some of the results follow.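 Note: peak tail current of the secondary pulse compared with the same well before compound.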"}
{"biological_target": "human ether-à-go-go-related gene (hERG) potassium channel (human, UniProt Q12809)", "sequence (Q12809 whole entry, looked up)": "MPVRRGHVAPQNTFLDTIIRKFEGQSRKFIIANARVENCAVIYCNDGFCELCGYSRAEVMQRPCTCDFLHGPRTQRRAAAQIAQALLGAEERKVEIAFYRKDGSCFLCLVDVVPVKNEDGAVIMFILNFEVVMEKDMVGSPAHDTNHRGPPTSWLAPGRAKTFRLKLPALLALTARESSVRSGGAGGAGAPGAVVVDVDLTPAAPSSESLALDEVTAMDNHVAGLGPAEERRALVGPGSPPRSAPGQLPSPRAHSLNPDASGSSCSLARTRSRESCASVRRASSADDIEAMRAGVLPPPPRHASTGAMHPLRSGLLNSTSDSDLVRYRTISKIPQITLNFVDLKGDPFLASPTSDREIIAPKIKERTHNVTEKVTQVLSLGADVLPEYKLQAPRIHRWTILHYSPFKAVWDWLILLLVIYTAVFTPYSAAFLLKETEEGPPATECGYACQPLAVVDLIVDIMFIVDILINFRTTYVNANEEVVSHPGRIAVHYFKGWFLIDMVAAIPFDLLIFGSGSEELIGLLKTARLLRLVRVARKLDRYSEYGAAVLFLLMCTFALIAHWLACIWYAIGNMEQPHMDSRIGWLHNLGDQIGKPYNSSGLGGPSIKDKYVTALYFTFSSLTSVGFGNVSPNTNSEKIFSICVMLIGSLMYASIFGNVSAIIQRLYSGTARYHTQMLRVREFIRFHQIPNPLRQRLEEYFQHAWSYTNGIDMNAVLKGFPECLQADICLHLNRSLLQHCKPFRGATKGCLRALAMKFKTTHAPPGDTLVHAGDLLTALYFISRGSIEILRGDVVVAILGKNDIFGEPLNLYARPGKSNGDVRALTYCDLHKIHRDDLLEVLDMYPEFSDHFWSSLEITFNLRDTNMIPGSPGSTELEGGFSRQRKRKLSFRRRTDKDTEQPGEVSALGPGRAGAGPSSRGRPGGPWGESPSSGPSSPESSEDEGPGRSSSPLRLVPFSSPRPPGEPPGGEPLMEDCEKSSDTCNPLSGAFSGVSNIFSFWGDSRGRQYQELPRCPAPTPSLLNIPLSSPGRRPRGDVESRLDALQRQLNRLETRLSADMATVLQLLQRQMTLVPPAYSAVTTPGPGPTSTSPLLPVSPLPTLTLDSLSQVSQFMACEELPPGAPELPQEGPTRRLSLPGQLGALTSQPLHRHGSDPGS", "experiment": "primary screen, population patch clamp on CHO cells stably expressing hERG", "units": {"hERG current change (%, negative = inhibition) at 10uM": "%"}}
{"compound": "O=c1c2cccnc2[nH]c(=S)n1CCCN1CCN(c2ccccc2F)CC1", "hERG current change (%, negative = inhibition) at 10uM": -13.7}
{"compound": "CCOc1ccc(OCC)c(NC(=O)CN2CCN(CC)CC2)c1.Cl", "hERG current change (%, negative = inhibition) at 10uM": -43.3}
{"compound": "COc1ccc(NC2CCCN(C(=O)CCc3cn[nH]c3)C2)cc1", "note": "(stereo not drawn)", "hERG current change (%, negative = inhibition) at 10uM": -14.6}
{"compound": "CC(=O)c1ccc(S(=O)(=O)NC(=O)NC2CCCCC2)cc1", "hERG current change (%, negative = inhibition) at 10uM": 11.3}
{"compound": "CN(Cc1ccc(Cl)cc1Cl)C(=O)c1cccc(S(=O)(=O)N2CCN(c3ccccc3)CC2)c1", "hERG current change (%, negative = inhibition) at 10uM": 0.587}
{"compound": "CCOc1cc(N2CCOCC2)c(OCC)cc1NC(=O)COC(=O)CCc1c[nH]c2ccccc12", "hERG current change (%, negative = inhibition) at 10uM": 1.87}
{"compound": "COc1cccc(/C=N/NC(=O)C(=O)Nc2ccccc2OC(F)(F)C(F)F)c1", "hERG current change (%, negative = inhibition) at 10uM": -0.33}
{"compound": "CCCCNC(=O)c1ccc(CS(=O)(=O)c2cccc(C(F)(F)F)c2)o1", "hERG current change (%, negative = inhibition) at 10uM": -53.5}
{"compound": "COc1ccccc1Nc1nnc(SCC(=O)N2CCCC2)s1", "hERG current change (%, negative = inhibition) at 10uM": 1.27}
{"compound": "CCN(CC)S(=O)(=O)c1cccc(NC(=O)CSc2nc3ccccc3[nH]2)c1", "hERG current change (%, negative = inhibition) at 10uM": -28.2}
{"compound": "N=c1oc2ccccc2cc1-c1nc2ccccc2c(=O)[nH]1", "hERG current change (%, negative = inhibition) at 10uM": 10.3}
{"compound": "CCCC(=O)Nc1c(-c2ccccc2)c(=O)c(C)nn1-c1ccc(Cl)cc1", "hERG current change (%, negative = inhibition) at 10uM": 2.46}
{"compound": "C=CCNC(=O)CSc1nnc(C(CC)N(C)C)n1C1CCCCC1", "note": "(stereo not drawn)", "hERG current change (%, negative = inhibition) at 10uM": 13.5}
{"compound": "CC(=O)Nc1cc2c(cc1Br)OCCO2", "hERG current change (%, negative = inhibition) at 10uM": 21.5}
{"compound": "Cc1onc(-c2ccccc2)c1-c1csc(COc2ccccc2)n1", "hERG current change (%, negative = inhibition) at 10uM": 11.5}
{"compound": "COc1ccc(CC(=O)NNC(=O)COc2ccc3ccccc3c2)cc1", "hERG current change (%, negative = inhibition) at 10uM": 7.48}
{"compound": "COC(=O)C1=C(c2cccc(OCc3ccccc3)c2)C[C@@H]2CC[C@H]1N2C(=O)NNCc1ccccc1", "hERG current change (%, negative = inhibition) at 10uM": 10.8}
{"compound": "N#CCC(=O)N/N=C/c1ccc(Sc2nc3ccccc3s2)o1", "hERG current change (%, negative = inhibition) at 10uM": -0.512}
{"compound": "COc1ccc(Cc2nnc(SCc3nc4ccccc4c(=O)[nH]3)n2C)cc1", "hERG current change (%, negative = inhibition) at 10uM": -11.9}
{"compound": "O=C(Nc1ccc(N2CCOCC2)cc1)c1ccc([N+](=O)[O-])cc1", "hERG current change (%, negative = inhibition) at 10uM": 10.4}
{"compound": "COc1ccc(-c2nc(N)ncc2Oc2ccccc2Br)c(O)c1", "hERG current change (%, negative = inhibition) at 10uM": -4.67}
{"compound": "CCOC(=O)Cc1nnc(NC(=O)CCc2ccccc2)s1", "hERG current change (%, negative = inhibition) at 10uM": 5.15}
{"compound": "O=C(COc1ccc(Cl)cc1)Nc1ncccn1", "hERG current change (%, negative = inhibition) at 10uM": -5.85}
{"compound": "CNC(=O)C(=O)NCC1OCCN1S(=O)(=O)c1ccc(OC)c(OC)c1", "note": "(stereo not drawn)", "hERG current change (%, negative = inhibition) at 10uM": 14.4}
